{"source": "paper PMC12136788", "binders": {"B1": {"name": "chr10:1038518:1038519:+_ENSG00000107937_ENST00000545048|hu_hu|hu_hu_hu_mus_False|28_68 (ssRNA)", "RNA": "GGGAGUUCUACAGUCCGACGAUCCAGUCUGUCAUGGUAAUUCUGUUGAGUAAAUUUGACUUUUCUCAUGUAAAAAUGUCGAAUCCGAUGAAUUUGAUAAUGUUUAUGAAUAACGGUUGGAGUCUUUCGUUGAGUCUUGGAUAACAACAGAGGAUUGAGCAUCA"}, "B2": {"name": "chr11:50195847:50195848:+_ENSMUSG00000007850_ENSMUST00000123371|mus_mus|motif|central (ssRNA)", "RNA": "GGGAGUUCUACAGUCCGACGAUCCCAGAUUUCUUACAUUUAUUUGUAUAGGCAAUGACCAGAAAAUUCACUCAAAAGACGGUUUAAACUUUAUAGAAAAAAAGAAAAUAAACUCCUCUGAGGCAGAGCCCAGCCUUAGAGGCACAACAGAGGAUUGAGCAUCA"}, "B3": {"name": "chr3:87342203:87342204:+_ENSMUSG00000003382_ENSMUST00000170036|mus_mus|motif|central (ssRNA)", "RNA": "GGGAGUUCUACAGUCCGACGAUCCCGAGUGCCAUCCCUUGCCUCAGCAGAUAGGAAACCAUUUCUUCUUGCUGCUCUGAGCGGCGGGAGCACACACGUGCACAGAGGCCGUUGGCUGGUGCCGCUUUCUCUCUACCCUAGUGCCAACAGAGGAUUGAGCAUCA"}, "B4": {"name": "chr18:86887116:86887117:+_ENSMUSG00000024647_ENSMUST00000068423|mus_hu|FALSE|FALSE (ssRNA)", "RNA": "GGGAGUUCUACAGUCCGACGAUCUACAGCUUCCAUUACCAACUUAUAUGAUUCAGGACCACUCAGGAACACCAGGUUCUUAAAGGAUUCUGAAGUAUAAAUUAAAAAAAAAUGCAGGUUGCUAUUAAUAGUUCUAAAGGUGCACAACAGAGGAUUGAGCAUCA"}, "B5": {"name": "chr17:64801638:64801639:+_ENSG00000154229_ENST00000413366|hu_mus|hu_hu_hu_mus_False|58_88 (ssRNA)", "RNA": "GGGAGUUCUACAGUCCGACGAUCUAUAUAUAUAUAUACAUAUGUACACAUAUGUAGUAAAACCCUAGUUAAACGUGUAAACUAGCCAUUCAUUUUUAAAAUUACAUCUACAUUAAAAAAUUAAUAUAUCUGAUAGAGUGCCAGCAACAGAGGAUUGAGCAUCA"}, "B6": {"name": "62645084_62645204_982_CDS_ENSMUSG00000032244_ENSMUST00000034775|mouse|control|control (ssRNA)", "RNA": "GGGAGUUCUACAGUCCGACGAUCAUCAGCUUUACAGCUUUCAGCGGCCACCUUCAAUGGUGUCAUCCCAUGGCCAUUCACCACUAUUGCAGCUCUCCAUUUUAUCAGUUCUUUCACAAUGUCAAUGUGACCAGCUUCGGCUGCCAACAGAGGAUUGAGCAUCA"}, "B7": {"name": "17148479_17148599_2661_3pUTR_ENSMUSG00000058230_ENSMUST00000075845|mouse|control|control (ssRNA)", "RNA": "GGGAGUUCUACAGUCCGACGAUCACUCCUUUGAAUUGUAAAGGCAGAGACAGCCAUGGGGUUGGAAGGUUGGUGUCUGGAAAGAGUUCACAGGAAGCCGGACAUUCCCCUCUAUUGGCCUCAGAGAAAGCUCAUACAUUUUACCAACAGAGGAUUGAGCAUCA"}, "B8": {"name": "19491381_19491752_4390_CDS_ENSG00000127481_ENST00000375254|human|control|control (ssRNA)", "RNA": "GGGAGUUCUACAGUCCGACGAUCCGAUGUAGUCAUGCGGGUGAGCCAGGCCUGCAGGCGCACAGGUUCCACACAGGCCAGUUGUGCCAGGGAGCCACAGAGAUGCAACAGGCUCGGGUUAGGGCUCUUCUCAGUCAGCUGGAACAACAGAGGAUUGAGCAUCA"}, "B9": {"name": "chr22:26877738:26877739:-_ENSG00000100099_ENST00000336873|hu_mus|FALSE|FALSE (ssRNA)", "RNA": "GGGAGUUCUACAGUCCGACGAUCUCCACCACGCUGCUGACUUUGUCUCUGGGGGAGUGGUGGUGGCCAUUUACUCUCCAGAUGGCUUCAUCCUCUUCAUCUGGUGUUCUUCCUAGAAGCAGUUCUCUGUCCCCCAACUGGUGUCAACAGAGGAUUGAGCAUCA"}, "B10": {"name": "chr7:123332509:123332510:-_ENSG00000106299_ENST00000223023|hu_mus|FALSE|FALSE (ssRNA)", "RNA": "GGGAGUUCUACAGUCCGACGAUCUGAGCAGGACACGGGCCGGCUAUUCUGUUCCACUUUUUUCAGCUGAGCACCCUCUCUAAUUUGAUCCAAAAGAGCUGCUUUGUUUCCUGAAGGAGCUGGAACUUGAUGGUCACCAUCAGACAACAGAGGAUUGAGCAUCA"}, "B11": {"name": "chrX:71549762:71549763:+_ENSMUSG00000019087_ENSMUST00000019231|mus_mus|mus_mus_mus_hu_False|8_68 (ssRNA)", "RNA": "GGGAGUUCUACAGUCCGACGAUCAAACCCGUGUACUUCUUAUUGUUAGCACAACAUCACCAGAAAAAAAACAUAACAGCCAAGCAGGACAGACAGUUAAGUAGUACUUCCACACUCCCAAACUCAGAGGAACCUCAAACCUUACAACAGAGGAUUGAGCAUCA"}, "B12": {"name": "chr2:242276830:242276831:+_ENSG00000168385_ENST00000391971|hu_hu|FALSE|FALSE (ssRNA)", "RNA": "GGGAGUUCUACAGUCCGACGAUCUAAGGGCUUAAGUCCAUGUCCAAAAGGUGAAAUAAAGUAAAAGCAACAAUGCACCCUAUUAUCAAUGAUGUGCCGCCUGUUCAAGCCGCUCUCGUCAUGCAGGUACCUCUCAAAUUGCUCCAACAGAGGAUUGAGCAUCA"}, "B13": {"name": "103434694_103434927_2470_CDS_ENSG00000198752_ENST00000361246|human|control|control (ssRNA)", "RNA": "GGGAGUUCUACAGUCCGACGAUCCCGUUCUCGCUUUGACUUUUCUAACUUAUCUUUUAACAUCAAGAUUUCUUUCUGCAGGGCCAGCUGGUGGCUUUCUGAAUCAUGCACCUCCUUCUUCACAUUUUUCACUUCUAGCACAUGCAACAGAGGAUUGAGCAUCA"}, "B14": {"name": "chr10:107688926:107688927:+_ENSMUSG00000019907_ENSMUST00000070663|mus_mus|FALSE|FALSE (ssRNA)", "RNA": "GGGAGUUCUACAGUCCGACGAUCUUCAUUGAUCGAACUAUUCUUUUUAAGAUCAUCUUCCCAUUUUCUUCUUGUGUAAGAACUACUUGUUCGCAAACUUGAAGACUCUCUGUUCUCCUUCUCUUCAAUGUCAGAUGUACUGGCCAACAGAGGAUUGAGCAUCA"}, "B15": {"name": "chr22:32879901:32879902:+_ENSG00000100225_ENST00000397426|hu_mus|hu_hu_hu_mus_False|28_108 (ssRNA)", "RNA": "GGGAGUUCUACAGUCCGACGAUCCUCUGCCAUAUGCAUGGCAUCCUGAAUUGACUCAGCUUCAACAUUUUGACUAGGCCCUUCCAUACUGUCAUCAGUCCAGGCAUCAGACUGGGCGGCCUGUCCUUGGGAUGAAUCAGUCCCCAACAGAGGAUUGAGCAUCA"}, "B16": {"name": "chr4:76721835:76721836:+_ENSG00000138768_ENST00000264904|hu_mus|hu_hu_hu_mus_True|18_68 (ssRNA)", "RNA": "GGGAGUUCUACAGUCCGACGAUCGUUUGGCUGGGGUUUCUGAGACGCUCUGGAAUAUAACUCAUGUUGCUAAUAAAAUCCUAGUUUCUCUAUGAAAUUCUCUUUGCCAAUCCUCUUUCAAUCAGUUUGCUUUAGUUUCUCUUUCAACAGAGGAUUGAGCAUCA"}, "B17": {"name": "chr7:130337358:130337359:+_ENSMUSG00000052707_ENSMUST00000094053|mus_hu|FALSE|FALSE (ssRNA)", "RNA": "GGGAGUUCUACAGUCCGACGAUCUUUUUUUUUUAAACUGGGGAACUGGUUUUCCUGAGAACCAUGCUCUUUGAUUUGGGACAGGAAUAGAAAAACAAAAGAACAUGGCCAAAUGCUGCUCCUUUUUCCCAGAGAUAGAAAGCACAACAGAGGAUUGAGCAUCA"}, "B18": {"name": "9449942_9450062_146_5pUTR_ENSMUSG00000024286_ENSMUST00000053917|mouse|control|control (ssRNA)", "RNA": "GGGAGUUCUACAGUCCGACGAUCUGGCGGGUGGCGCCGCGCAGGCCGCCUCCCACCGUGUUCUUGUUCAGCGCUCCGCUCCCAGCGGCGACUUCCGCAAGCGGUUCCGGUUCACGCCGGGGACACGCGAGUGCGCGCGGAUACCAACAGAGGAUUGAGCAUCA"}, "B19": {"name": "chr4:84185219:84185220:-_ENSG00000173085_ENST00000439031|hu_mus|FALSE|FALSE (ssRNA)", "RNA": "GGGAGUUCUACAGUCCGACGAUCGCUGUGACAGGGAGCUGGUUGAAAGCAGCUGCAGUAAAGUCCAGUACACGCUGCCCGAGUGCUUCUUACUUCUUUAACAGAUUGCUCAUCCAAGCCUAACAAUGUAGUCUUAAGCCCUGACAACAGAGGAUUGAGCAUCA"}, "B20": {"name": "chr18:50337633:50337634:+_ENSMUSG00000024507_ENSMUST00000025385|mus_hu|FALSE|FALSE (ssRNA)", "RNA": "GGGAGUUCUACAGUCCGACGAUCAUAUACUGGUUUUGCAAAACGAGCCUUAAUUGCCUUGAAUCUUGACACAUCAUUAUCUGCAAACUGCUGUAACACACGCCUGGCAGAAAAUCCAAAUGUACAUAAUCCAUGUAAUAUGGGCAACAGAGGAUUGAGCAUCA"}, "B21": {"name": "chr10:86154994:86154995:-_ENSMUSG00000020048_ENSMUST00000020238|mus_mus|FALSE|FALSE (ssRNA)", "RNA": "GGGAGUUCUACAGUCCGACGAUCCGCCUUGGUGUCUGGUAGAAGAUAUCCUGACCGAAGUGUUGCCGUUUCAAACAAAACUACAGCAAGAUCCAUGACUGUCUUGUCAUCUUCAUCUUCCUUAAUCCGCCGCAACAUGUCUCUCAACAGAGGAUUGAGCAUCA"}, "B22": {"name": "184049334_184049575_4278_CDS_ENSG00000114867_ENST00000411531|human|control|control (ssRNA)", "RNA": "GGGAGUUCUACAGUCCGACGAUCAGCCGUCAUGAGGGCUCGAACUAACGUGUUGGAUACUAUCUGCUGCUCACUCAGGUUGGCCUCUAUCCAGUCGAACACCCGCUGGUUACUGCUGCCCUCCUUCAGCAGCUUCUCCAGCUGCAACAGAGGAUUGAGCAUCA"}}, "note": "Some of the results follow.", "data": [{"target": "T1, UNK ZnF1-3 (human, UniProt Q9C0B0 31-174)", "T1 sequence": "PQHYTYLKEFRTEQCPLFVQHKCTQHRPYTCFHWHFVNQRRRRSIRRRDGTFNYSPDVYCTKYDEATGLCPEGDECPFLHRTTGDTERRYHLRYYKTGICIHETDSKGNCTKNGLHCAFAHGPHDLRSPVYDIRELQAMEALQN", "assay": "nsRBNS (natural sequence RNA bind-n-seq); RBNS binding buffer (assumed for nsRBNS): 25 mM Tris pH 7.5, 150 mM KCl, 3 mM MgCl2, 0.01% Triton X-100, 500 ug/ml BSA, 20 U/ml SUPERase-In, 4 C; UNK is unkempt and MSI1 is Musashi-1; names of the RNAs are library labels; protein concentration not given here; high values mean tight binding", "units": {"binding signal": "enrichment R"}, "values": [{"binder": "B1", "binding signal": 0.681}, {"binder": "B2", "binding signal": 2.58}, {"binder": "B3", "binding signal": 0.74}, {"binder": "B4", "binding signal": 1.09}, {"binder": "B5", "binding signal": 1.7}, {"binder": "B6", "binding signal": 0.663}, {"binder": "B7", "binding signal": 1.43}, {"binder": "B8", "binding signal": 1.16}, {"binder": "B9", "binding signal": 0.69}, {"binder": "B10", "binding signal": 1.22}, {"binder": "B11", "binding signal": 2.36}, {"binder": "B12", "binding signal": 1}, {"binder": "B13", "binding signal": 0.664}, {"binder": "B14", "binding signal": 0.33}, {"binder": "B15", "binding signal": 0.676}, {"binder": "B16", "binding signal": 0.473}, {"binder": "B17", "binding signal": 1.15}, {"binder": "B18", "binding signal": 0.584}, {"binder": "B19", "binding signal": 1.18}, {"binder": "B20", "binding signal": 1.04}, {"binder": "B21", "binding signal": 0.586}, {"binder": "B22", "binding signal": 0.59}]}]}
